Measurements taken from the supplement of paper PMC11417369.
± gives the standard deviation of the averaged measurements. The list shows a part of the results.

Test system: PfAP2-I AP2 domain 3 (GST-tagged)
Experiment: gcPBM binding intensity (ln(normalized median fluorescence intensity)); higher = stronger DNA binding
Summary of the method: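 GST-tagged P. falciparum DNA-binding domains, expressed in E. coli (about 25 μg on average), were applied for 1 h to an Agilent 4 × 180k array of primer-extended double-stranded 36-bp intergenic genomic probes plus negative controls. The binding buffer was 1× PBS with 1% milk, 0.2 mg/ml BSA, 0.5% salmon testes DNA and 0.03% Triton X-100. Bound protein was detected with Alexa488 anti-GST antibody and scanned at 488 nm. Binding intensity is the highest Masliner-normalised natural-log median intensity across replicate spots of either probe orientation.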

Going from “AAAATTTAATATAATGCACACATAAAAAAAAAATCA [CACACA_site7882]” to “TAAAAAAGTTATATTACACACTTTATTGGTTAACTT [CACACA_site653]”, the “gcPBM binding intensity (ln)” value falls from 11.2 ± 0.76 to 7.59 ± 0.46.

First: ACATATAAATTATATACACACAATAATATATATATA [CACACA_site1384]
Second: TATTTATAAAAAAAATGTACATTTATGTATAAGCTA [XGTACX_site3266]
The “gcPBM binding intensity (ln)” value of the first is higher: 8.92 ± 0.44 for the first, 7.77 ± 0.37 for the second.

“ATAATGTTTCTTTCAACACACAAAAAATGAACCCAT [CACACA_site4947]” and “GTATAATTGGAAATTACACACCTTATAATGTAACAT [CACACA_site6091]” are within error of each other in “gcPBM binding intensity (ln)” value: 8.3 ± 0.45 for the first, 7.71 ± 0.52 for the second.

“AATGATTTTAAAAAATGTACTTTATAAACAAAATTA [XGTACX_site3803]” and “TTTTTTTTTGTTAGTTGTACGTTAAATGAATTTACT [XGTACX_site7675]” are within error of each other in “gcPBM binding intensity (ln)” value: 7.57 ± 0.39 for the first, 7.79 ± 0.71 for the second.

Compared with “TAAATTAGAATAAATACACACAAATTAGAATTCTAT [CACACA_site7781]”, “TAAAGTGTCAAATTCACACACATATATATATATATA [CACACA_site1380]” is higher in “gcPBM binding intensity (ln)” value: 7.49 ± 0.7 for the first, 9.26 ± 0.11 for the second.

“ATATTATATAACTTTTGTACGAACTATTTTATATAT [XGTACX_site6]” and “ACCTATGTATATTATACACACTCCAAACTATTCTTT [CACACA_site6939]” are within error of each other in “gcPBM binding intensity (ln)” value: 8 ± 0.33 for the first, 8.18 ± 0.57 for the second.

“TTTAGAGAAGTCAAGTGTACATATAAAATAATTCAC [XGTACX_site4997]” and “ATAAAAATAAATAAATTATATAAATGTAATATGAAA [GTGCAC_negctrl_site663]” are within error of each other in “gcPBM binding intensity (ln)” value: 7.83 ± 0.56 for the first, 7.68 ± 0.24 for the second.

“AAAAAAAAATATATATGTACATATGTATAATAAAAA [XGTACX_site2110]” and “AATGAAGACTTTTTTACACACTTCATATATTATATA [CACACA_site2034]” are within error of each other in “gcPBM binding intensity (ln)” value: 7.92 ± 0.45 for the first, 8 ± 0.73 for the second.

“TATTTATTTATATATGCATGCTAATAATTATAACAT [TGCATGCA_site988]” and “CCAAACTAAATGTACACACATACATAAATATAAATA [CACACA_site1141]” are within error of each other in “gcPBM binding intensity (ln)” value: 7.83 ± 0.54 for the first, 7.97 ± 0.18 for the second.

Compared with “ATGTAATAAATATACACACACAAATATATATATATA [CACACA_site2395]”, “ATATTTTCAGTTCTCCATTATGTTCCCATTATTTTT [CACACA_negctrl_site990]” is lower in “gcPBM binding intensity (ln)” value: 9.47 ± 0.14 for the first, 7.96 ± 0.79 for the second.

Going from CATGAATATTTTAATGTGCACATTTATCATTATATG to “ATATATATATATATTGCACACATATAAATATATATA [CACACA_site8167]”, the “gcPBM binding intensity (ln)” value rises from 9.5 ± 0.21 to 10.5 ± 0.47.

“TTTTTGTTTTTTTTGTGTACTTATCAAATATATATA [XGTACX_site7273]” and “GAAAAATTTAATTATTGTACGTTTCATCTATATTTA [XGTACX_site414]” are within error of each other in “gcPBM binding intensity (ln)” value: 7.96 ± 0.45 for the first, 7.72 ± 0.57 for the second.

“TACTATATATTATATAGTACATAAGATATACAACAT [XGTACX_site2929]” and “AAGAAAATTAACCCATGTACTTATGTAGATAGCAAG [XGTACX_site1049]” are within error of each other in “gcPBM binding intensity (ln)” value: 7.81 ± 0.49 for the first, 7.87 ± 0.47 for the second.

“CAAAAAAAATTATACACACACACACCCATATATATA [CACACA_site1044]” and “TAAAACTTAATATAAACACACAAAAATTAATAAATA [CACACA_site4370]” are within error of each other in “gcPBM binding intensity (ln)” value: 8.28 ± 0.67 for the first, 7.62 ± 0.44 for the second.

“CAATATTATAGATATACACACATAATGTGTAAAAAC [CACACA_site6631]” and “TCTTGATCTTATATATATCTACAATATTTTATACAT [TGCATGCA_negctrl_site569]” are within error of each other in “gcPBM binding intensity (ln)” value: 7.87 ± 0.79 for the first, 7.89 ± 0.62 for the second.

“ATTACAAATATAATATGTACTTAAATATAATTAAAA [XGTACX_site7038]” and “ATTACTAAAACAAAATGTACATATGATTTAAGAAAA [XGTACX_site5992]” are within error of each other in “gcPBM binding intensity (ln)” value: 7.6 ± 0.38 for the first, 7.69 ± 0.31 for the second.

“TTTTTTTTTTAGAGTACACACTTTTTTACATTTATG [CACACA_site5990]” and “AGCCCAAAAAAGTAGACATGCAAAAACTTTACAACT [TGCATGCA_site550]” are within error of each other in “gcPBM binding intensity (ln)” value: 8 ± 0.48 for the first, 7.8 ± 0.71 for the second.

“AAAAAAAAAAAGAAGGGTACATATTATATATAATAT [XGTACX_site6204]” and “TATATATAAACATAATGTACATATAATAAGTAATAT [XGTACX_site497]” are within error of each other in “gcPBM binding intensity (ln)” value: 7.58 ± 0.42 for the first, 7.88 ± 0.54 for the second.

“AATTTTCAATAGTATACACACAATTCTATAAATATA [CACACA_site6650]” and “AATGAGAATTTTATTACACACTTTAATATATTTTCA [CACACA_site784]” are within error of each other in “gcPBM binding intensity (ln)” value: 7.66 ± 0.61 for the first, 7.7 ± 0.53 for the second.

First: CACGTGAAAATACAAGCATGCAAGCTTTTTTTTTCT [TGCATGCA_site642]
Second: AATTTTTTTATAGCACGTACAAAAATACAAAATACA [XGTACX_site1569]
The “gcPBM binding intensity (ln)” value of the first is lower: 7.29 ± 0.86 for the first, 9.23 ± 0.071 for the second.

“TAGAGGAATATAATATGTACATAATATAATGTATAT [XGTACX_site2838]” and “AGTGAAATTTTAGTCACACAGTTTTATCTTTAAGAA [CACACA_site5202]” are within error of each other in “gcPBM binding intensity (ln)” value: 7.9 ± 0.57 for the first, 7.18 ± 0.66 for the second.

Going from “TTATGTCTAATGAAATGTACATGAATAAATTAAAGT [XGTACX_site8138]” to “AAAAAAATAAATAAATGTACACATATATATATATAT [XGTACX_site4350]”, the “gcPBM binding intensity (ln)” value rises from 8.28 ± 0.4 to 9.17 ± 0.028.

Going from “ATCATTTATATTTTATGTACATATATAATTATATTT [XGTACX_site2129]” to “AATTATATAAGCCACGCATGTGTGCATAAAAATACA [TGCATGCA_site114]”, the “gcPBM binding intensity (ln)” value rises from 8.01 ± 0.59 to 11.1 ± 0.34.

“CTTAAAAAAATATATTGTACATATATATATACAACT [XGTACX_site1281]” and “TATATTCCCATATAACGTACATATGAGACACCAACT [XGTACX_site8099]” are within error of each other in “gcPBM binding intensity (ln)” value: 7.83 ± 0.23 for the first, 7.97 ± 0.35 for the second.

“GTTTATATATTATAAAGTACATATGAATTTAATAAT [XGTACX_site3601]” and “ATTTCAAAATATAGCTGTACAAAAAATGTAGATATA [XGTACX_site5843]” are within error of each other in “gcPBM binding intensity (ln)” value: 7.78 ± 0.23 for the first, 7.84 ± 0.43 for the second.

“AAAAAATAAATAAACATAAATAAATAAATAAATATA [XGTACX_negctrl_site340]” and “GATCATTCTAAATATAAACACACATAAATATATACA [CACACA_site9108]” are within error of each other in “gcPBM binding intensity (ln)” value: 7.42 ± 0.73 for the first, 7.74 ± 0.49 for the second.

“ATAATATAATAATATTGTACATGGTCAAATATGAAA [XGTACX_site8390]” and “AATTTTGTCCTATGTTGTACTATTTTGCTCTATTTT [XGTACX_site7139]” are within error of each other in “gcPBM binding intensity (ln)” value: 7.7 ± 0.61 for the first, 8.13 ± 0.91 for the second.

“TAACTTCAAAAATCTTGTACATAAATATATAAAACA [XGTACX_site8574]” and “TTTCTCTCTTATAAAATACACACGAACAATCATATT [CACACA_site509]” are within error of each other in “gcPBM binding intensity (ln)” value: 7.66 ± 0.45 for the first, 7.88 ± 0.47 for the second.

“AAAAATGGTGTTAACACACACATATATATATATATA [CACACA_site571]” was tested, and the “gcPBM binding intensity (ln)” value was 9.52 ± 0.45.
